Test results taken from PubChem BioAssay AID1794749 (DTP/NCI, 2022).
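Cells were grown in 96-well plates and exposed to the test compound at a single concentration for 48 hours; results are reported as percent growth, with values below 10 considered active.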 Certain results were filed several times, with different values. This list holds those alone. The source may hold further records. The screen tested this drug many times, at its own concentration, as given; one value stands for one run. Marks such as (2×) give the number of equal values in this list.

System: XF 498 CNS
Experiment: NCI-60 one-dose screen, 48 h (100 = growth as untreated, 0 = no growth, -100 = all killed)
Conditions: 2.5 mM
Description: Growth inhibition of the XF 498 human tumor cell line is measured as a screen for anti-cancer activity. Cells are grown in 96 well plates and exposed to the test compound for 48 hours. Compounds are tested at a single concentration, which is 10^-5 M for most compounds. The reported endpoint is percent growth (GI% or GIPRCNT), where numbers from 0 - 100% represent growth inhibition, and numbers from -100% - 0 represent cell death. For example, a value of 40 represents 60% growth inhibition. A value of 0 means no net growth occurred over the course of the experiment. A value of -40 indicates 40% of cells at the beginning of the experiment died by the end of the experiment. A value of -100 means all cells are dead at the end of the experiment.
NCI-60 Human Tumor Cell Lines Screen was performed using the standard one-dose NCI protocol, which is described in more detail at https://dtp.cancer.gov/discovery_development/nci-60/default.htm.
Compounds with GIPRCNT values below 10 were considered active. Activity score was based on GIPRCNT using the following formula: […]
Score is 0 for GIPRCNT values of 100 or above, 50 for GIPRCNT values of 0, and 100 for GIPRCNT values of -100.

`O=c1[nH]cc(F)c(=O)[nH]1` was tested, and the growth (runs of 1991) was 22.3, -9.3, -14.3, 50.3, -5.71, -10.4, 10.4, -9.35, 15, 22.8, -8.18% and the growth (runs of 1992) was 16.6, -23.2, -3.08, 29.4, 50.3, -23.1, -1.44, 20.6, 79.1, -16 (2×), 32.6, 8.51, -27.1, -1.49, 34.7, 4.68, 31.8, 7.69, -7.28, -2.79, -26.9, 31.1, -16.3, -5.03, 17.3, 22.2, 34, 11.2, -6.6, -9.36, -12, 9.29, -12.9, -18.4, -29, -25.1, -4.29, -9.69, 7, -10.4, -9.33, 8.84, -8.7, -23.4, -25.7, -13.8, 24.6, 183, -5.95, 2.49, 35, -14.7, -3.78, 7.87, 8.05, 24.7, 9.62, 23.6, 28.7, 6.85, 14.3, 16.2, 19.6, 57.2, 19.3, 35.3, 17.8, -21, -0.816, -4.76, 8.25, -6.44, -18.9, -8.62, -7.44, 39.9, 4.33, 13, -2, 2.7, -7.12, 27.8, 25.4, -2.45, -17.6, -6.01, -17.2, 52.4%.
